# “And” between values parts separate entries of the source, which are not always exact repeats. Equal entries are not always repeated. The shares of active, inactive and inconclusive entries below differ from those in the screen. For part of these data: Potencies beside an inconclusive call are fits to weak or partial responses and may not hold up. A structure can be active in one record and inactive in another. The source made the active and inactive calls. The call rests on the fitted dose curve; in most records, active means well fitted curve in the direction sought with a large enough effect; inconclusive means small, poorly fitted or top-dose-only effect, or another doubt; inactive means no such curve, though single readings can be large; an effect the other way counts as inactive or inconclusive.
# What was measured:
# MCC-13 = test: qHTS assay to identify novel small-molecules to repurpose for Merkel cell carcinoma treatment (AID 1296009); details: MCC and control cell lines, CellTiter-Glo viability, 72 h; series mostly up to 46 µM; further: nearly all actives have a fitted effect of over 60% in size
# Summary of the method: (§1)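 CellTiter-Glo luminescence after 72 hr compound exposure at 37 degree celsius gave cell viability. Libraries NPC and MIPE were run as 8- and 11-point dose responses; RLUs normalized to DMSO (negative) and no-cell (cytotoxicity) controls.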
# MCC-26 = test: as above; details: MCC and control cell lines, CellTiter-Glo viability, 72 h; series mostly up to 46 µM
# Summary of the method: as §1
# PC49 = test: qHTS profiling for inhibitors of Plasmodium falciparum proliferation (AID 504749); further: nearly all actives have a fitted effect of over 60% in size; details: P. falciparum in erythrocytes, SYBR Green DNA, 72 h; series mostly up to 28.7 µM
# Summary of the method: (§2)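 SYBR Green fluorescence (ex 485 nm, em 535 nm) reports parasite DNA after 72 h compound exposure of infected red cells at 0.3% parasitemia, 2.5% hematocrit; signal normalized to 0.29 uM artemisinin and vehicle wells.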
# TAB109 = test: as above; details: P. falciparum in erythrocytes, SYBR Green DNA, 72 h; series mostly up to 28.7 µM
# Summary of the method: as §2
# TAB113 = test: as above; details: P. falciparum in erythrocytes, SYBR Green DNA, 72 h; series mostly up to 28.7 µM
# Summary of the method: as §2
# MKL-1 = test: qHTS assay to identify novel small-molecules to repurpose for Merkel cell carcinoma treatment (AID 1296009); details: MCC and control cell lines, CellTiter-Glo viability, 72 h; activity change, negative = cytotoxicity: at 46 µM (top of the series) unless noted; further: nearly all actives have a fitted effect of over 60% in size
# Summary of the method: as §1
# MKL-2 = test: as above; details: MCC and control cell lines, CellTiter-Glo viability, 72 h; series mostly up to 46 µM
# Summary of the method: as §1
# WaGa = test: as above; details: MCC and control cell lines, CellTiter-Glo viability, 72 h; series mostly up to 46 µM
# Summary of the method: as §1
# C33A = test: Primary qHTS to identify gynecologic anti-cancer compounds using libraries of approved drugs and bioactive compounds (AID 1345084); details: Gynecologic cancer cell panel viability, ATPlite luminescence, 48 h; series mostly up to 57.5 µM; further: nearly all actives have a fitted effect of over 55% in size
# Summary of the method: (§3)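 Luminescence from the ATPlite ATP-monitoring reagent indicates viable cell number; lower signal means cytotoxicity. Cells received compound 16 h after seeding and were exposed for 48 h across five concentrations.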
# CAOV3 = test: as above; details: Gynecologic cancer cell panel viability, ATPlite luminescence, 48 h; series mostly up to 57.5 µM
# Summary of the method: as §3
# CASKI = test: as above; details: Gynecologic cancer cell panel viability, ATPlite luminescence, 48 h; series mostly up to 57.5 µM
# Summary of the method: as §3
# Es-2 = test: as above; details: Gynecologic cancer cell panel viability, ATPlite luminescence, 48 h; series mostly up to 57.5 µM
# Summary of the method: as §3
# HeLa = test: as above; details: Gynecologic cancer cell panel viability, ATPlite luminescence, 48 h; series mostly up to 57.5 µM
# Summary of the method: as §3
# Hek293T = test: as above; details: Gynecologic cancer cell panel viability, ATPlite luminescence, 48 h, control line for the selectivity index; series mostly up to 57.5 µM
# Summary of the method: as §3
# OV90 = test: as above; details: Gynecologic cancer cell panel viability, ATPlite luminescence, 48 h; series mostly up to 57.5 µM
# Summary of the method: as §3
# SC27B = test: qHTS profiling for inhibitors of Plasmodium falciparum proliferation (AID 504749); further: nearly all actives have a fitted effect of over 60% in size; details: P. falciparum in erythrocytes, SYBR Green DNA, 72 h; series mostly up to 28.7 µM
# Summary of the method: as §2
# TAB165 = test: as above; details: P. falciparum in erythrocytes, SYBR Green DNA, 72 h; series mostly up to 28.7 µM
# Summary of the method: as §2
# W2 = test: as above; details: P. falciparum in erythrocytes, SYBR Green DNA, 72 h; series mostly up to 28.7 µM
# Summary of the method: as §2
# UISO = test: qHTS assay to identify novel small-molecules to repurpose for Merkel cell carcinoma treatment (AID 1296009); details: MCC and control cell lines, CellTiter-Glo viability, 72 h; activity change, negative = cytotoxicity: at 46 µM (top of the series) unless noted; further: nearly all actives have a fitted effect of over 60% in size
# Summary of the method: as §1
# JEG-3 = test: Primary qHTS to identify gynecologic anti-cancer compounds using libraries of approved drugs and bioactive compounds (AID 1345084); details: Gynecologic cancer cell panel viability, ATPlite luminescence, 48 h; series mostly up to 57.5 µM; further: nearly all actives have a fitted effect of over 55% in size
# Summary of the method: as §3
# Potency means the concentration at half of the fitted maximal effect; tags describe the fitted curve by direction and shape.
structure (smiles),measurement,setting,value
CC(=Cc1csc(C)n1)[C@@H]1C[C@H]2O[C@@H]2CCC[C@H](C)[C@@H](O)[C@@H](C)C(=O)C(C)(C)[C@@H](O)CC(=O)O1,Potency,MCC-13,"inconclusive: 0.0013 µM [inhibitor, full curve, poor fit]"
same,Potency,MCC-26,"inconclusive: 0.0013 µM [inhibitor, full curve, poor fit]"
C#CC(O)(C=CCl)CC (stereo not given),Potency,MCC-13,inactive
O=C1C(I)=CC(=C(c2cc(I)c(O)c(I)c2)c2ccccc2C(=O)O)C=C1I,Potency,MCC-13,"inconclusive: 5.31 µM [inhibitor, single point]"
Fc1ccc(C(OCCN2CCN(CCCc3ccccc3)CC2)c2ccc(F)cc2)cc1,Potency,PC49,active: 8.91 µM
same,Potency,TAB109,active: 7.94 µM
same,Potency,TAB113,active: 8.91 µM
same,Potency,MCC-13,"inconclusive: 29.6 µM [inhibitor, single point]"
same,Potency,MKL-1,"inconclusive: 29.6 µM [inhibitor, single point]"
same,Potency,MKL-2,active: 23.5 µM and active: 4.73 µM
same,Potency,WaGa,"inconclusive: 29.6 µM [inhibitor, single point]"
same,Potency,C33A,"inconclusive: 28.2 µM [cytotoxic, single point]"
same,Potency,CAOV3,"inconclusive: 35.5 µM [cytotoxic, single point]"
same,Potency,CASKI,"inconclusive: 31.6 µM [cytotoxic, single point]"
same,Potency,Es-2,"inconclusive: 39.8 µM [cytotoxic, single point]"
same,Potency,HeLa,"inconclusive: 39.8 µM [cytotoxic, single point]"
same,Potency,Hek293T,"inconclusive: 31.6 µM [cytotoxic, partial curve, poor fit]"
same,Potency,OV90,active: 22.4 µM
Oc1cc(Cl)ccc1Oc1ccc(Cl)cc1Cl,Potency,SC27B,active: 4.47 µM
same,Potency,TAB109,active: 10 µM
same,Potency,TAB165,active: 3.55 µM
same,Potency,W2,active: 3.38 µM
same,Potency,MCC-13,active: 44.2 µM
same,Potency,MCC-26,"inconclusive: 39.4 µM [inhibitor, single point]"
same,Potency,UISO,active: 44.2 µM
same,Potency,C33A,active: 28.2 µM
same,Potency,CAOV3,"inconclusive: 44.7 µM [cytotoxic, single point]"
same,Potency,CASKI,active: 39.8 µM
same,Potency,Es-2,"inconclusive: 39.8 µM [cytotoxic, single point]"
same,Potency,HeLa,active: 44.7 µM
same,Potency,Hek293T,"inconclusive: 39.8 µM [cytotoxic, partial curve, poor fit]"
same,Potency,JEG-3,"inconclusive: 44.7 µM [cytotoxic, single point]"
same,Potency,OV90,"inconclusive: 50.1 µM [cytotoxic, single point]"
Cc1ccccc1-n1c(Cn2cnc3c(N)ncnc32)nc2cccc(C)c2c1=O,Potency,MCC-13,"inconclusive: 5.26 µM [inhibitor, partial curve]"
same,Potency,MKL-1,"inconclusive: 4.69 µM [inhibitor, full curve]"
same,Potency,MKL-2,"inconclusive: 833 nM [inhibitor, full curve]"
same,Potency,UISO,active: 3.72 µM
same,Potency,WaGa,"inconclusive: 0.132 µM [inhibitor, full curve]"
Clc1ccc(COC(Cn2ccnc2)c2ccc(Cl)cc2Cl)cc1 (stereo not given),Potency,TAB165,active: 0.708 µM
same,Potency,MCC-13,"inconclusive: 33.5 µM [inhibitor, single point]"
same,Potency,MCC-26,active: 21.1 µM
same,Potency,MKL-1,active: 23.7 µM
same,Potency,UISO,active: 15 µM
same,Potency,WaGa,"inconclusive: 33.5 µM [inhibitor, single point]"
same,Potency,C33A,"inconclusive: 22.4 µM [cytotoxic, partial curve, poor fit]"
same,Potency,CAOV3,"inconclusive: 20 µM [cytotoxic, single point]"
same,Potency,CASKI,"inconclusive: 25.1 µM [cytotoxic, single point]"
same,Potency,Es-2,"inconclusive: 39.8 µM [cytotoxic, single point]"
same,Potency,HeLa,"inconclusive: 31.6 µM [cytotoxic, single point]"
same,Potency,OV90,active: 17.8 µM
S=C(SSC(=S)N1CCCCC1)N1CCCCC1,Potency,MCC-13,active: 0.168 µM
same,Potency,MKL-1,active: 0.133 µM
same,Potency,MKL-2,active: 94.4 nM
same,Potency,UISO,active: 0.0944 µM
same,Potency,WaGa,"inconclusive: 21.1 µM [inhibitor, single point]"
same,Potency,C33A,"inconclusive: 22.4 µM [cytotoxic, single point]"
same,Potency,CAOV3,"inconclusive: 31.6 µM [cytotoxic, single point]"
same,Potency,Es-2,"inconclusive: 39.8 µM [cytotoxic, single point]"
same,Potency,Hek293T,active: 17.8 µM
same,Potency,JEG-3,"inconclusive: 39.8 µM [cytotoxic, single point]"

# — PubChem BioAssay (NCATS)
